For some of these results: This list holds what a sample rich in strong results left over. Only a part is listed here, and it is no random draw.

The target in experiment [1] is T1, Aurora kinase A (Homo sapiens) (UniProt O14965).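 Further: values are mean percent inhibition.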
T1 sequence (whole entry): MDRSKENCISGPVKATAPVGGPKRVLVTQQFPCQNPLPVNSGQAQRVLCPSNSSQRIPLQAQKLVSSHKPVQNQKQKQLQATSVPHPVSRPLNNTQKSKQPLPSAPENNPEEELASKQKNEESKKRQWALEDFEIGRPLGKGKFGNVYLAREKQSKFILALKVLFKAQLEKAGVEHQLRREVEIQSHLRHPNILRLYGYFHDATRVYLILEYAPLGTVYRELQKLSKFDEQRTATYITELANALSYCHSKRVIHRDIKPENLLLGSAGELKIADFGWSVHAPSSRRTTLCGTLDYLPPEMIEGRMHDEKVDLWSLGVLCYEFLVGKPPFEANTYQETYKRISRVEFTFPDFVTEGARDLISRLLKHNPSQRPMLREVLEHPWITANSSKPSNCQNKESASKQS
To be noted: at 1 µM.

Experiment [2] has as its target Aurora kinase B (Homo sapiens) (UniProt Q96GD4). The note with it: at 0.1 µM.
For experiment [3] the target is unchanged. The note with it: at 1 µM.
Experiment [4] addresses T2, Aurora kinase C (Homo sapiens) (UniProt Q9UQB9).
T2 sequence (whole entry): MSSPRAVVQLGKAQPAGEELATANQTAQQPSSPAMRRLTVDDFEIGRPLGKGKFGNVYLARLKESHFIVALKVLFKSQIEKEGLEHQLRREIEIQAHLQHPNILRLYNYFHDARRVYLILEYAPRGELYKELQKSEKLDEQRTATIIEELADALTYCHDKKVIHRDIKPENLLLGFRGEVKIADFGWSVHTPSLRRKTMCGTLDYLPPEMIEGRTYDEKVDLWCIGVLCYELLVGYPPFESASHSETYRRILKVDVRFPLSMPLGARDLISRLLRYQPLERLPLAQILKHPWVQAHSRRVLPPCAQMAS
The note with it: at 0.1 µM.

In experiment [5] the target is T2, Aurora kinase C (Homo sapiens). The note with it: at 1 µM.
Experiment [6] addresses Serine/threonine-protein kinase 10 (Homo sapiens) (UniProt O94804). The note with it: at 0.1 µM.
Experiment [7] has the same target. The note with it: at 1 µM.
The target of experiment [8] is T3, Mitogen-activated protein kinase kinase kinase kinase 2 (Homo sapiens) (UniProt Q12851).
T3 sequence (whole entry): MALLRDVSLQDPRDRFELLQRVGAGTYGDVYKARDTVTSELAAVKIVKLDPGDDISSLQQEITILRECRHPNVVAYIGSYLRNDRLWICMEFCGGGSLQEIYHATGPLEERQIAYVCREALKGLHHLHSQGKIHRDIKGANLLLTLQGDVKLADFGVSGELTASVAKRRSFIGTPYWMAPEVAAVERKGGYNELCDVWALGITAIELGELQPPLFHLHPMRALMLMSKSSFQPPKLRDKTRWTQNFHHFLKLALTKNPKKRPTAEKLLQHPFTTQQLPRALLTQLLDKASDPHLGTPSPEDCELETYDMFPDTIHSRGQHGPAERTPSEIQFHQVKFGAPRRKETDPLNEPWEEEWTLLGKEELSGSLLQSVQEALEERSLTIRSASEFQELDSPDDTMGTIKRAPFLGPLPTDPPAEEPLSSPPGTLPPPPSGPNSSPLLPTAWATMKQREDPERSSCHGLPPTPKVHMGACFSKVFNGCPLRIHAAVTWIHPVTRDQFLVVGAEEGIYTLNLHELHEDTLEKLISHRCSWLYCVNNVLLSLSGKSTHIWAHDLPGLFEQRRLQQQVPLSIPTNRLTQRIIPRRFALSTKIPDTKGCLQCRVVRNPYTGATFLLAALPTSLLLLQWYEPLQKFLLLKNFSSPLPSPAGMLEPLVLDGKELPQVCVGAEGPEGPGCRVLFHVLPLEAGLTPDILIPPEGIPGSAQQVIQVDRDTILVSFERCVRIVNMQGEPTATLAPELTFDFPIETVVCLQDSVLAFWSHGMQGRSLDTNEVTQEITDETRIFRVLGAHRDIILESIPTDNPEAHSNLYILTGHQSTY
The note with it: at 0.1 µM.

For experiment [9], the target named is T3, Mitogen-activated protein kinase kinase kinase kinase 2 (Homo sapiens). The note with it: at 1 µM.
The target in experiment [10] is Mitogen-activated protein kinase kinase kinase kinase 4 (Homo sapiens) (UniProt O95819). The note with it: at 0.1 µM.
For experiment [11] the target is unchanged. To be noted: at 1 µM.
Experiment [12] deals with Dual specificity mitogen-activated protein kinase kinase 1 (Homo sapiens) (UniProt Q02750). The note with it: at 0.1 µM.
For experiment [13] the target is unchanged. To be noted: at 1 µM.
The target of experiment [14] is Misshapen-like kinase 1 (Homo sapiens) (UniProt Q8N4C8). The note with it: at 0.1 µM.
For experiment [15] the target is unchanged. To be noted: at 1 µM.
The target in experiment [16] is T4, Serine/threonine-protein kinase 4 (Homo sapiens) (UniProt Q13043).
T4 sequence (whole entry): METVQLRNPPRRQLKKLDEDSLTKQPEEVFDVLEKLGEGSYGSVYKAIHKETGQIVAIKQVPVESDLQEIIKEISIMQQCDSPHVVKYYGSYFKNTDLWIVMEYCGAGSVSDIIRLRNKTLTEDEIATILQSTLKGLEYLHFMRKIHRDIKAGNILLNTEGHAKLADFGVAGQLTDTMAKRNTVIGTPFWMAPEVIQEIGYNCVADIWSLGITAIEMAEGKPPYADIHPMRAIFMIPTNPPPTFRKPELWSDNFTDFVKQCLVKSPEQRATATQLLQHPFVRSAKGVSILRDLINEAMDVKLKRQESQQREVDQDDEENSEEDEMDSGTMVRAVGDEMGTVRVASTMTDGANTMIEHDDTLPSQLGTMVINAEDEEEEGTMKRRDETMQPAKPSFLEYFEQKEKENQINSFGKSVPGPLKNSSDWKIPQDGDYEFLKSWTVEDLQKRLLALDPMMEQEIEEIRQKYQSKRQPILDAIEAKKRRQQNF
The note with it: at 0.1 µM.

Experiment [17] concerns the target T4, Serine/threonine-protein kinase 4 (Homo sapiens). The note with it: at 1 µM.
The target in experiment [18] is T5, Serine/threonine-protein kinase 3 (Homo sapiens) (UniProt Q13188).
T5 sequence (whole entry): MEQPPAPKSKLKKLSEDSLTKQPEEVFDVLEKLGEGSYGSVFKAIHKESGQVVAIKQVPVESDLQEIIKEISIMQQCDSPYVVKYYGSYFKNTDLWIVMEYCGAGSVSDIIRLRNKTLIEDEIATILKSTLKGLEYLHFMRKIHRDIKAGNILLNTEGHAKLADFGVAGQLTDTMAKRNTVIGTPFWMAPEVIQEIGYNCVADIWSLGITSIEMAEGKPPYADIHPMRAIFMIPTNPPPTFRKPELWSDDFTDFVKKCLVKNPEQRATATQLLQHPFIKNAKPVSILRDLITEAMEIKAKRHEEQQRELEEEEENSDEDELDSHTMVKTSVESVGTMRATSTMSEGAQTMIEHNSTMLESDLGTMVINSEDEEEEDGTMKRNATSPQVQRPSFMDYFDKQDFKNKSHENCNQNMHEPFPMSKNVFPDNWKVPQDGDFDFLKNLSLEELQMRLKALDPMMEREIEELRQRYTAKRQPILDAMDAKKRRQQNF
To be noted: at 0.1 µM.

Experiment [19] concerns the target T5, Serine/threonine-protein kinase 3 (Homo sapiens). The note with it: at 1 µM.
The target in experiment [20] is Serine/threonine-protein kinase 26 (Homo sapiens) (UniProt Q9P289). The note with it: at 0.1 µM.
UniProt Q9P289, sequence (Q9P289 whole entry, looked up): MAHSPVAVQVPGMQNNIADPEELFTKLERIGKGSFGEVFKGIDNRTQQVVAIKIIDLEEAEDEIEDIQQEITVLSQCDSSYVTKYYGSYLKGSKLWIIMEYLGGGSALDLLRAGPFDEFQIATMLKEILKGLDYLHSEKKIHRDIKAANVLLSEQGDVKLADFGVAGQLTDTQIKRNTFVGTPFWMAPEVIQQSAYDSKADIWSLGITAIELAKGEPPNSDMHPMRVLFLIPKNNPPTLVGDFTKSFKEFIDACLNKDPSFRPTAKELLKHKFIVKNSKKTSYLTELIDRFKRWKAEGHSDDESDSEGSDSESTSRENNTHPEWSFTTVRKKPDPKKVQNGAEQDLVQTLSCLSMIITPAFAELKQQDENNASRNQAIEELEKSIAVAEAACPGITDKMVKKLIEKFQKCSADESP

UniProt Q02750, sequence (Q02750 whole entry): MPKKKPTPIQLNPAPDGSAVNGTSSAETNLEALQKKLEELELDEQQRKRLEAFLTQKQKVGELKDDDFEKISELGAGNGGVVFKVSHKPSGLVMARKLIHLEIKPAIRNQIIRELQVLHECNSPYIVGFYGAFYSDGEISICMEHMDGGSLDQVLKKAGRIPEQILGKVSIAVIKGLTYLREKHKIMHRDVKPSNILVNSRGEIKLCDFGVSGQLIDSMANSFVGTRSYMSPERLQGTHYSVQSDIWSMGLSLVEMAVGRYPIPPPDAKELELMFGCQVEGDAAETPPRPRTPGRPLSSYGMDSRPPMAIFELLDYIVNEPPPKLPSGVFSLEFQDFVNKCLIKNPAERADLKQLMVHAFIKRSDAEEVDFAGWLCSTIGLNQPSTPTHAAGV
UniProt Q96GD4, sequence (Q96GD4 whole entry): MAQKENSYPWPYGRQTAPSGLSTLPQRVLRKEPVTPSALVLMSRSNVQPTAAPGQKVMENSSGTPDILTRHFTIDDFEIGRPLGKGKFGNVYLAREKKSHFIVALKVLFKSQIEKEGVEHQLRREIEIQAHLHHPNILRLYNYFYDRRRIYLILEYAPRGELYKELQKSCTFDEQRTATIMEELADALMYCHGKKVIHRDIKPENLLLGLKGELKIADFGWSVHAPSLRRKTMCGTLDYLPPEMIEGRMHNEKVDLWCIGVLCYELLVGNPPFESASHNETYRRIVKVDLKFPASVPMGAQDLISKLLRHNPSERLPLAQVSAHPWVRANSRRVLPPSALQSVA
UniProt Q8N4C8, sequence (Q8N4C8 whole entry, looked up): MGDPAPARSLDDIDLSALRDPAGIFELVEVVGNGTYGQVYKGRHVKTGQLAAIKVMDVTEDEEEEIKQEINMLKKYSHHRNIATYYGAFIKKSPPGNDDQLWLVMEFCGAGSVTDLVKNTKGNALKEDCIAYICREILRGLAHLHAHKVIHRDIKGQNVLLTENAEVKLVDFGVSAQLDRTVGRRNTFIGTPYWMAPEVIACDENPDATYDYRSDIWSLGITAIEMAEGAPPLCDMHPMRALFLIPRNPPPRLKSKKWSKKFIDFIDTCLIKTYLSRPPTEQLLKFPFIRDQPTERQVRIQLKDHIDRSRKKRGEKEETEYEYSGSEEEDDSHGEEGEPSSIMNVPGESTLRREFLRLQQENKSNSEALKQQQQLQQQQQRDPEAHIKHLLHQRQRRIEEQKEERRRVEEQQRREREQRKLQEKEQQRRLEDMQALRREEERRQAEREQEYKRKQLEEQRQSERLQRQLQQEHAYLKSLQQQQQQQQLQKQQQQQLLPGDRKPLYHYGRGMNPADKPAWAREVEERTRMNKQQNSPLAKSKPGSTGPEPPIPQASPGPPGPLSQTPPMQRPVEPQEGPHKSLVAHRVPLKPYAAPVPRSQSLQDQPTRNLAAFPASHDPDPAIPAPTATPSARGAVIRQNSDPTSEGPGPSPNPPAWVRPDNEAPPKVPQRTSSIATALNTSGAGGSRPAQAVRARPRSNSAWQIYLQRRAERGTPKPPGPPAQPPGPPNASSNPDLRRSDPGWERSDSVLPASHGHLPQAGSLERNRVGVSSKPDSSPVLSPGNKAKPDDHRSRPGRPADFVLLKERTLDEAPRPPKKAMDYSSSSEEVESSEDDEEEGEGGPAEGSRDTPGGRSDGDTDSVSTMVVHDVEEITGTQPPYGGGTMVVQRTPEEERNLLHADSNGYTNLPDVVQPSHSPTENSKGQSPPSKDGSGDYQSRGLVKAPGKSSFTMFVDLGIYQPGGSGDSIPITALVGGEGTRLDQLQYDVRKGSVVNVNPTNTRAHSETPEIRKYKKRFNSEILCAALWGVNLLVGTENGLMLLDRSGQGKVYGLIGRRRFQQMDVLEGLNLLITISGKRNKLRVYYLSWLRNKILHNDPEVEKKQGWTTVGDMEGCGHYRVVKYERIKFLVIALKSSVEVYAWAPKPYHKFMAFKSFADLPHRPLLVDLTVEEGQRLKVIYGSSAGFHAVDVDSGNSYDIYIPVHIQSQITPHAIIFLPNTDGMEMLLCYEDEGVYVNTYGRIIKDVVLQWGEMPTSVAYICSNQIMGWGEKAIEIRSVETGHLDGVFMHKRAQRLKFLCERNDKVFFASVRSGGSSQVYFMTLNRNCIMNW
UniProt O94804, sequence (O94804 whole entry, looked up): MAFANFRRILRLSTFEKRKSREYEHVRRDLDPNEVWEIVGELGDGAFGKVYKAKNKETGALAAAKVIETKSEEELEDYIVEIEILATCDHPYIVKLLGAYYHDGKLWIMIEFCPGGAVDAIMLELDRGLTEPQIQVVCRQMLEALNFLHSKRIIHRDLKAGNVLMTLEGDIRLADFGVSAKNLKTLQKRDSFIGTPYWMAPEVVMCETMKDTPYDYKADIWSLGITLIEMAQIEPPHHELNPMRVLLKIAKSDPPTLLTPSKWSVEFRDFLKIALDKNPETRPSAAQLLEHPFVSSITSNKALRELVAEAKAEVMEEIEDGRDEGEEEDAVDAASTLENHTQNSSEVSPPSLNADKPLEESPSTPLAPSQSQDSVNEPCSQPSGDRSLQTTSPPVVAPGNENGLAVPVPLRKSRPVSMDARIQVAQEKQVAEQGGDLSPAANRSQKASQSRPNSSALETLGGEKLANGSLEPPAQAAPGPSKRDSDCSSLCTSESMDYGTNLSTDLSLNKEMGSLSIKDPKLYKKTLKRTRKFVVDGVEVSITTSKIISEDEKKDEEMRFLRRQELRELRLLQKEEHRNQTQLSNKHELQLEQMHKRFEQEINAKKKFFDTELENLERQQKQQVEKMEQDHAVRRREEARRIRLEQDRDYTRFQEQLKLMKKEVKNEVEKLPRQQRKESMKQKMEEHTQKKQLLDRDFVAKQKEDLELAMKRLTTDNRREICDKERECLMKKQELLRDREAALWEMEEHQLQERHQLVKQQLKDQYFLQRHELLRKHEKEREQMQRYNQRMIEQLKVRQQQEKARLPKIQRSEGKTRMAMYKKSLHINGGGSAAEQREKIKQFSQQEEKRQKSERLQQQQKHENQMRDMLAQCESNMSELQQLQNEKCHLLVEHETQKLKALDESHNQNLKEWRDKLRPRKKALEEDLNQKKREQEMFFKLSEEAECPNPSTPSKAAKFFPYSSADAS
UniProt O95819, sequence (O95819 whole entry, looked up): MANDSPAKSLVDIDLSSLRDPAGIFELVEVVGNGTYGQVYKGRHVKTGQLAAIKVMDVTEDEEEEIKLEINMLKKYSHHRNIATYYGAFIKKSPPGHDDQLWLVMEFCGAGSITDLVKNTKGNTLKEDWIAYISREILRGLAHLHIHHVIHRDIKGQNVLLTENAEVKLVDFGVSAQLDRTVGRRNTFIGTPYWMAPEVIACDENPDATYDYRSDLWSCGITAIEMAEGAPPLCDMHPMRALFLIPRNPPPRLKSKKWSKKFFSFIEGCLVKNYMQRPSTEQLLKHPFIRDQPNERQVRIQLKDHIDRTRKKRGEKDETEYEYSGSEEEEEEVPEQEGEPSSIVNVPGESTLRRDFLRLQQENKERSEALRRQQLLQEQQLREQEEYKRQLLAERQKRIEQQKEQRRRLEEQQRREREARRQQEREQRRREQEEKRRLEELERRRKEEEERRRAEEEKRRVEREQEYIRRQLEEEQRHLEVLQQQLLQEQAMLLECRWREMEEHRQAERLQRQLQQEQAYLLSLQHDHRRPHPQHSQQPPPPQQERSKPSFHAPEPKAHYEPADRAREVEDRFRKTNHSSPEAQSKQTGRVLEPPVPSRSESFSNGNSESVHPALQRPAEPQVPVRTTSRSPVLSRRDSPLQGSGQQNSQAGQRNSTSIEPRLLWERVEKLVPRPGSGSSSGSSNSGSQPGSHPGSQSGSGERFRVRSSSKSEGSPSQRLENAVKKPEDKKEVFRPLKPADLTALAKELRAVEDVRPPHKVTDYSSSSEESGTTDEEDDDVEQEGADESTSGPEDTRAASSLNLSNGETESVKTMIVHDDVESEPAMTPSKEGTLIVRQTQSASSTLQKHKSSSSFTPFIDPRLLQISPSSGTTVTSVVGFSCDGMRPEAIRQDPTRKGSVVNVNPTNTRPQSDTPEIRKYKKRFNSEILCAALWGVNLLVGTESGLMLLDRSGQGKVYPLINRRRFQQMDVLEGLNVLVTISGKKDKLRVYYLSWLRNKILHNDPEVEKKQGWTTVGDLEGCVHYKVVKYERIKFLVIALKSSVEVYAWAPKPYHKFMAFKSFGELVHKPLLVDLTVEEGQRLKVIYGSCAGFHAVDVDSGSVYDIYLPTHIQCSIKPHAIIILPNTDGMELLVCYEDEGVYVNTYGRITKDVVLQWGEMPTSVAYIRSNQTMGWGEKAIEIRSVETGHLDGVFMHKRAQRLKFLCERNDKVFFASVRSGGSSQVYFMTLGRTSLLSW

By inhibition is commonly meant the change of the read-out against control, counted positive when it falls. On to `Fc1ccc(-c2ncn(C3CCNCC3)c2-c2ccnc(Oc3ccc(Cl)cc3)n2)cc1`, for which the inhibition in experiment [1] is 0.17%; in experiment [2] it was 0.57%; in experiment [3] it was 2.45%; in experiment [4], -0.39%; in [5], -1.12%; in experiment [6] it was 1.72%. In addition, the inhibition was 3.91% in [7]; 1.02% in experiment [8]; 5.84% in [9]; 0.76% in experiment [10]; 1.49% in [11]; 1.79% in [12]. The inhibition is 3.05% in experiment [13]; 0.72% in experiment [14]; 1.27% in experiment [15]; -0.24% in [16]; 0.91% in experiment [17]; -1.52% in [18]. In addition, the inhibition amounted to 0.79% in [19] and 0.49% in [20].
As to `O=C1NC(=O)C(c2cccc([N+](=O)[O-])c2)=C1Nc1cc(Cl)c(O)c(Cl)c1`, the inhibition was determined as 2.21% in experiment [2]; 3.34% in [3]; 1.93% in [4]; 6.2% in [5]; 3.53% in experiment [6]; 13.6% in experiment [7]. Also, the inhibition in [8] was -6.79%; in experiment [9], 5.47%; in [10], 2.66%; in experiment [11], 4.07%; in [12] it was 2.59%; in experiment [13] it was 2.69%. Further, the inhibition came out at 3.34% in experiment [14]; 2.65% in [15]; 13% in [16]; 56.5% in [17]; 12.4% in experiment [18]; 50.7% in experiment [19]. Also, the inhibition in experiment [20] was 3.03%.
For `O=C(O)c1ccc(Oc2nccc(-c3c(-c4ccc(F)cc4)ncn3C3CCNCC3)n2)cc1`, the inhibition turned out to be 3.12% in experiment [1]; 2.6% in experiment [2]; 4.72% in experiment [3]; 0.74% in [4]; 2% in [5]; 6.8% in [6]. Further, the inhibition in [7] is 8.19%; in [8], -1.44%; in experiment [9], 1.57%; in [10], 3.08%; in [11], 1.8%; in experiment [12], 3.94%. Moreover, the inhibition in [13] was found to be 4.58%; in [14], 3.04%; in experiment [15], 4.13%; in experiment [16], 3.08%; in experiment [17], 4.69%; in experiment [18] it was 5.69%. In addition, the inhibition in [19] is 4.71%; in experiment [20], -2.14%.
With `Fc1ccc(-c2ncn(C3CCNCC3)c2-c2ccnc(Oc3cccc(F)c3)n2)cc1`, the inhibition in experiment [1] worked out at 4.59%; in [2] it was 4.46%; in experiment [3] it was 4.6%; in experiment [4], 2.13%; in [5], 1.42%; in experiment [6], 8.49%. Moreover, the inhibition in [7] was 9.09%; in experiment [8], -0.26%; in experiment [9] it was 3.59%; in experiment [10], 4.5%; in experiment [11], 9.3%; in experiment [12], 3.69%. For the same compound, the inhibition in experiment [13] came out at 5.25%; in experiment [14], 7.28%; in experiment [15], 7.56%; in experiment [16], 4.08%; in [17], 5.81%; in experiment [18], 5.64%. In addition, the inhibition in [19] stood at 7.21%; in experiment [20], 0.02%.
Regarding `O=C1NC(=O)C(c2ccccc2Cl)=C1Nc1cc(Cl)c(O)c(Cl)c1`, the inhibition is 11.8% in [1]; 4.77% in experiment [2]; 9.34% in experiment [3]; 4.54% in experiment [4]; -3.03% in experiment [5]; 4.78% in experiment [6]. The inhibition in experiment [7] was 19.1%; in [8] it was -0.01%; in experiment [9], 2.7%; in [10], 2.37%; in experiment [11] it was 5.34%; in experiment [12], 4.15%. Also, the inhibition turned out to be 4.62% in experiment [13]; 3.87% in experiment [14]; 4.7% in [15]; 7.23% in [16]; 11.9% in experiment [17]; 8.39% in [18]. The inhibition in experiment [19] was 11.1%; in experiment [20], -1.02%.
In the case of `CS(=O)(=O)c1ccc(Oc2nccc(-c3c(-c4ccc(F)cc4)ncn3C3CCNCC3)n2)cc1`, the inhibition in experiment [1] is 3.95%; in experiment [2], 1.11%; in experiment [3], 4.21%; in experiment [4] it was -0.52%; in experiment [5], 1.87%; in [6] it was 7.57%. For the same compound, the inhibition in experiment [7] was 8.42%; in [8], 0.86%; in [9], 2.41%; in experiment [10] it was 3.9%; in experiment [11], 5.21%; in [12], 4.29%. In addition, the inhibition amounted to 4.33% in experiment [13]; 6.5% in experiment [14]; 6.72% in [15]; 3.25% in [16]; 3.52% in experiment [17]; 4.45% in experiment [18]. Also, the inhibition is 5.07% in experiment [19] and -1.12% in experiment [20].
`Fc1ccc(Oc2nccc(-c3c(-c4ccc(F)cc4)ncn3C3CCNCC3)n2)cc1`: the inhibition in [1] is -3.14%; in experiment [2], -2.42%; in [3], -1.44%; in [4], -4.29%; in [5], -2.03%; in experiment [6], 6.94%. Further, the inhibition was 7.45% in experiment [7]; -0.24% in experiment [8]; 0.81% in experiment [9]; 4.73% in experiment [10]; 3.11% in experiment [11]; 1.76% in experiment [12]. Moreover, the inhibition stood at 2.77% in [13]; 4.46% in experiment [14]; 5.21% in experiment [15]; 2.62% in [16]; 3.3% in [17]; 6.03% in [18]. Besides, the figures for the inhibition in experiment [19] and in experiment [20] were 6.39% and -1.55%, respectively.

Values taken from ChEMBL document CHEMBL1961873, “Compounds: GSK PKIS; Assays: Nanosyn kinase panel” (2012).
